{
  "source": "PubChem BioAssay AID504339",
  "about": "(National Center for Advancing Translational Sciences (NCATS), 2011)",
  "note": "Hit rate of the full screen: of about 390,000 compounds, about 17,000 (4.4%) were called active. Inconclusive means that the source gave no clear call. Such entries were picked first, then a sample of the others. Calls come from the whole dose curve; as a rule, active = well fitted inhibition curve with a large enough effect; inconclusive = small, poorly fitted or top-dose-only effect; inactive = no such curve, though single readings can be large or run the other way. A potency beside an inconclusive call is a rough fit, not a confirmed value. % is set by controls: 0 for no effect and ±100 for the full control effect; potency is the fitted concentration of half-maximal effect; tags give direction and shape of the fitted curve.",
  "data": [
    {"target": "Lysine-specific demethylase 4A (Homo sapiens) (UniProt O75164)", "sequence (O75164 whole entry, looked up, the tested form may be a part)": "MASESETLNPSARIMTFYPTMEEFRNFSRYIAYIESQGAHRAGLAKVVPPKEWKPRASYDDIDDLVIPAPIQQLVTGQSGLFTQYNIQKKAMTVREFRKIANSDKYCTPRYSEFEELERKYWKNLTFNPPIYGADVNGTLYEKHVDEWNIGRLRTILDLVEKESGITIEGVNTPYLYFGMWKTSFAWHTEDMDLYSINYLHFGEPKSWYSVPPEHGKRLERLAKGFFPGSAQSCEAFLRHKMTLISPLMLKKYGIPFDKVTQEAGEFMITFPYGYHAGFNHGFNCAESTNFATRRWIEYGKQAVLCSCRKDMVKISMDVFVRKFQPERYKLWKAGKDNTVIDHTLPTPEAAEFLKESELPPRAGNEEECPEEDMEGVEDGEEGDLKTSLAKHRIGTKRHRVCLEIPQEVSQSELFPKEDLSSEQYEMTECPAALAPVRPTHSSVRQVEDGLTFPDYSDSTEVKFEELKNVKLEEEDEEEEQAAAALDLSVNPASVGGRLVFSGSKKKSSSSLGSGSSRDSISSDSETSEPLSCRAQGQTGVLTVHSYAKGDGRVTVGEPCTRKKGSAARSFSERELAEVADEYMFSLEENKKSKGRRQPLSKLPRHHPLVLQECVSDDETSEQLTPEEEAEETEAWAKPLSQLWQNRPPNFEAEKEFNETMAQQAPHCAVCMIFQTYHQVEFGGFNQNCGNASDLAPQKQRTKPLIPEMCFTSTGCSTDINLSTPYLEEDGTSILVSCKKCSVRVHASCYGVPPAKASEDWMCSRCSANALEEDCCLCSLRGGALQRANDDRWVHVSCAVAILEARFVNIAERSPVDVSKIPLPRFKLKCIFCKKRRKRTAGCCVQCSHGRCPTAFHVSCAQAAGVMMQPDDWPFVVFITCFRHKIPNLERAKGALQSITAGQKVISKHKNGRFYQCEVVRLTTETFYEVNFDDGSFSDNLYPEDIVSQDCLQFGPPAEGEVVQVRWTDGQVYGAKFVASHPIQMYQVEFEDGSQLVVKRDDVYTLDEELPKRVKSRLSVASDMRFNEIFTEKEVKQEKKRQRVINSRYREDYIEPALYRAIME", "test": "qHTS Assay for Inhibitors of JMJD2A-Tudor Domain; note: nearly all actives have a fitted effect of over 50% in size", "conditions": "AlphaScreen JMJD2A-Tudor / H3K4me3 peptide binding; activity change, negative = inhibition: at 114 µM (top of the series)", "values": [
      {"smiles": "COc1ccc(NC(=O)CCc2nnc3ccc(NCc4ccco4)nn23)cc1", "activity change, negative = inhibition": "inactive: -28.2%"},
      {"smiles": "CCOC(=O)C1CCCN(S(=O)(=O)c2cc3c4c(c2)CC(=O)N4CCC3)C1", "note": "(centres undefined)", "activity change, negative = inhibition": "inactive: -1.95%"},
      {"smiles": "COc1ccc(C)cc1NC(=O)C1COc2ccccc2C1", "note": "(centres undefined)", "Potency": "active: 8.91 µM"},
      {"smiles": "CC[N+]1(C)CCC(O)(c2ccc(OC)cc2)C(C(=O)c2ccc(OC)cc2)C1", "note": "(centres undefined)", "Potency": "active: 89.1 µM"},
      {"smiles": "COc1ccc(OC)c(N/C(C)=C/C(=O)c2ccc(Br)cc2)c1", "Potency": "inconclusive: 50.1 µM [inhibitor, partial curve]"},
      {"smiles": "Oc1ccc(/C=N/N=C/c2ccc(O)c(O)c2)cc1O", "Potency": "active: 7.94 µM"},
      {"smiles": "COc1ccc(-c2ccc(/C=N/N3C(=O)C4C5C=CC(C6CC56)C4C3=O)o2)c([N+](=O)[O-])c1", "note": "(centres undefined)", "Potency": "inconclusive: 22.4 µM [inhibitor, full curve]"},
      {"smiles": "CC(=O)Nc1ccc(-n2c(C)c(C(C)=O)c(C(C)=O)c2C)cc1", "Potency": "inconclusive: 39.8 µM [inhibitor, single point]"},
      {"smiles": "O=C(NCCCO)C(=O)NCC(c1ccc2c(c1)OCO2)N1CCOCC1", "note": "(centres undefined)", "activity change, negative = inhibition": "inactive: 2.9%"},
      {"smiles": "COC(=O)c1ccc(NC(=O)COc2cccc3c2OC(C)(C)C3)cc1", "activity change, negative = inhibition": "inactive: -0.69%"},
      {"smiles": "CC(C)(C)SCCNC(=O)CSCc1ccc([N+](=O)[O-])cc1", "activity change, negative = inhibition": "inactive: -15.5%"},
      {"smiles": "O=C(CN1C(=O)c2ccccc2C1=O)NCc1ccc(F)cc1", "Potency": "inconclusive: 20 µM [inhibitor, full curve]"},
      {"smiles": "COc1ccc(CCNS(=O)(=O)c2cc3c4c(c2)CCN4C(=O)CC3)cc1", "activity change, negative = inhibition": "inactive: -15.2%"},
      {"smiles": "C[C@H](CO)N1C[C@H](C)[C@@H](CN(C)Cc2ccc(Oc3ccccc3)cc2)Oc2ccc(NC(=O)Cn3cnnn3)cc2C1=O", "Potency": "inconclusive: 44.7 µM [inhibitor, single point]"},
      {"smiles": "COc1cc([N+](=O)[O-])cc(/C=N/NC(=O)c2cncc(Br)c2)c1O", "Potency": "active: 20 µM"},
      {"smiles": "COC(=O)/C=C1\\SC(=NC(=O)c2cccc([N+](=O)[O-])c2)NC1=O", "activity change, negative = inhibition": "inactive: -24.1%"},
      {"smiles": "N#Cc1c(-n2cccc2)cccc1-n1cccc1", "Potency": "inconclusive: 44.7 µM [inhibitor, partial curve]"},
      {"smiles": "COc1cccc(C(=O)NCc2cn3ccccc3n2)c1", "Potency": "inconclusive: 56.2 µM [inhibitor, partial curve]"},
      {"smiles": "COc1cccc(OCc2ccc(C(=O)NCC3CCCO3)cc2)c1", "note": "(centres undefined)", "Potency": "inconclusive: 100 µM [inhibitor, single point]"},
      {"smiles": "CCCCCCCCCc1nc2sc3c(c2c(=O)n1NC(=O)c1ccc([N+](=O)[O-])cc1)CC(C)(C)OC3", "Potency": "inconclusive: 35.5 µM [inhibitor, partial curve]"},
      {"smiles": "CCOc1ccc(-c2nnn(CC#N)n2)cc1OC", "activity change, negative = inhibition": "inactive: -1.53% [at 11.4 µM]"},
      {"smiles": "CCc1c(C)sc2c1CCN(C(=O)Nc1cc(OC)c(OC)c(OC)c1)C2c1ccccc1", "note": "(centres undefined)", "Potency": "inconclusive: 56.2 µM [inhibitor, partial curve]"},
      {"smiles": "Cc1ccc(NS(=O)(=O)c2ccc3c(c2)CC(=O)N3C)cc1C", "Potency": "inconclusive: 79.4 µM [inhibitor, single point]"},
      {"smiles": "COc1ccc(C(=O)OCC2CC(c3ccccc3)=NO2)cc1OC", "note": "(centres undefined)", "Potency": "inconclusive: 11.2 µM [inhibitor, partial curve]"},
      {"smiles": "COc1ccc(C2=Nn3c(nnc3-c3ccccc3Cl)SC2)cc1OC1CCCC1", "Potency": "inconclusive: 50.1 µM [inhibitor, partial curve]"},
      {"smiles": "COc1ccc(NC(=O)c2cn(CC(C)C)c(=O)c3cc(OC)c(OC)cc23)cc1Cl", "activity change, negative = inhibition": "inactive: -9.9%"},
      {"smiles": "COc1ccccc1C(=O)N1CCN(C2CCN(Cc3ccccc3)CC2)CC1", "Potency": "active: 7.94 µM"},
      {"smiles": "Cc1cccc(Nc2nc(N)c([N+](=O)[O-])c(N3CCOCC3)n2)c1", "Potency": "inconclusive: 89.1 µM [inhibitor, partial curve]"},
      {"smiles": "CN(CC(=O)Nc1ccc([N+](=O)[O-])cc1Br)Cc1c(F)cccc1Cl", "Potency": "inconclusive: 20 µM [inhibitor, full curve]"},
      {"smiles": "CCC(=O)Nc1ccc(C(=O)COC(=O)C(CCSC)NC(=O)COc2ccccc2)cc1", "note": "(centres undefined)", "activity change, negative = inhibition": "inactive: -11.7%"},
      {"smiles": "COc1ccc(C(=O)c2sc(Nc3ccccc3F)nc2N)cc1", "Potency": "inconclusive: 56.2 µM [inhibitor, partial curve]"},
      {"smiles": "COc1cccc(CNc2ccc3c(c2)CCC3)c1", "Potency": "inconclusive: 79.4 µM [inhibitor, partial curve]"},
      {"smiles": "CC1(C)C(=O)Nc2ccccc2N1C(=O)COC(=O)c1cc([N+](=O)[O-])ccc1N", "activity change, negative = inhibition": "inactive: -30.8%"},
      {"smiles": "COCCSc1ccccc1C(=O)NCc1ccc(S(N)(=O)=O)cc1", "activity change, negative = inhibition": "inactive: -17.7%"},
      {"smiles": "c1ccc(Cn2nnnc2C(c2ccccc2)N2CCN(Cc3ccncc3)CC2)cc1", "note": "(centres undefined)", "Potency": "inconclusive: 79.4 µM [inhibitor, single point]"},
      {"smiles": "Cc1nn(S(=O)(=O)c2ccc(Cl)cc2)c(C)c1Sc1ccc([N+](=O)[O-])cc1", "activity change, negative = inhibition": "inactive: -34.9%"},
      {"smiles": "CCN1C(=O)c2cccc3c(S(=O)(=O)N(C(C)=O)c4ccc(OC(C)=O)cc4)ccc1c23", "activity change, negative = inhibition": "inactive: 20.2%"},
      {"smiles": "O=S(=O)(c1ccccc1)[C@@]1(c2ccccc2)C[C@@H]2ON=C(c3cccc(-c4ccccc4)c3)[C@@H]2C1", "activity change, negative = inhibition": "inactive: -18.3%"},
      {"smiles": "O=C(CSc1nnnn1-c1ccccc1)Nc1ccc(N2CCOCC2)cc1", "activity change, negative = inhibition": "inactive: -7.8%"},
      {"smiles": "CC(C)Cc1nc2ccccc2[nH]1", "activity change, negative = inhibition": "inactive: 11.6%"},
      {"smiles": "Nc1cc(-c2ccc(Cl)cc2)nn1S(=O)(=O)c1cccc2nsnc12", "Potency": "active: 44.7 µM"},
      {"smiles": "Cc1c(C(=O)OCC(=O)NCc2ccco2)cccc1[N+](=O)[O-]", "Potency": "inconclusive: 44.7 µM [inhibitor, partial curve]"},
      {"smiles": "O=C(CNCCC1=CCCCC1)Nc1ccccc1N1CCCCC1", "Potency": "active: 5.62 µM"},
      {"smiles": "COc1ccc(NC(=O)CCS(=O)(=O)c2nc(-c3cccs3)cc(C(F)(F)F)n2)cc1OC", "activity change, negative = inhibition": "inactive: -6.48%"},
      {"smiles": "Cc1ccccc1NC(=S)c1nc2ccccc2[nH]1", "Potency": "inconclusive: 70.8 µM [inhibitor, single point]"},
      {"smiles": "COc1cc(/C=N/NC(N)=O)ccc1OCC(=O)N1C(C)CCCC1C", "note": "(centres undefined)", "activity change, negative = inhibition": "inactive: -6.08% [at 57.1 µM]"},
      {"smiles": "CC1(c2ccccc2)NC(=O)N(CC(=O)NCc2cccc(Cl)c2)C1=O", "note": "(centres undefined)", "activity change, negative = inhibition": "inactive: -4.15%"},
      {"smiles": "COc1ccc(OC)c(S(=O)(=O)Nc2cc3c(cc2C)n(C)c(=O)c(=O)n3C)c1", "activity change, negative = inhibition": "inactive: -2.67%"},
      {"smiles": "Cc1ccc2c(c1)C(=O)C(=O)N2CC1COc2ccccc2O1", "note": "(centres undefined)", "Potency": "inconclusive: 11.2 µM [inhibitor, single point]"},
      {"smiles": "COc1ccc(C(=O)C[N+]2(C)CCOCC2)cc1", "Potency": "active: 22.4 µM"},
      {"smiles": "CCN1C(c2ccccc2)=C(c2ccccc2)S/C1=C\\C=C1/SC(=S)N(C)C1=O", "Potency": "active: 7.94 µM"},
      {"smiles": "CC(=O)c1cccc(NS(=O)(=O)c2ccc3[nH]c4c(c3c2)CCCCCC4)c1", "Potency": "inconclusive: 44.7 µM [inhibitor, partial curve]"},
      {"smiles": "Cc1ccc(S(=O)(=O)c2nc(-c3cccs3)oc2N2CCCCC2)cc1", "Potency": "inconclusive: 35.5 µM [inhibitor, full curve]"},
      {"smiles": "O=C(COC(=O)c1ccccc1C(=O)c1ccccc1)NCc1ccc(F)cc1", "Potency": "inconclusive: 12.6 µM [inhibitor, partial curve, poor fit]"},
      {"smiles": "CCOC(=O)C1CCCN(Cc2sccc2C)C1", "note": "(centres undefined)", "Potency": "active: 2.82 µM"},
      {"smiles": "CCOc1cc(C)c(C(C)C)cc1S(=O)(=O)NCc1ccccn1", "Potency": "inconclusive: 22.4 µM [inhibitor, single point]"},
      {"smiles": "CCC(C(=O)NCCc1c[nH]c2ccc(C)cc12)c1ccccc1", "note": "(centres undefined)", "Potency": "inconclusive: 79.4 µM [inhibitor, partial curve]"},
      {"smiles": "Cc1cccc(/C=C2/C(=O)/C(=C/c3ccccc3C)C3CCC2N3C)c1", "note": "(centres undefined)", "Potency": "inconclusive: 20 µM [inhibitor, full curve]"},
      {"smiles": "COc1cccc(Cn2nnc(C(=O)Nc3ccc(C)cc3)c2N)c1", "activity change, negative = inhibition": "inactive: -21.4%"},
      {"smiles": "Cc1c(Cl)cccc1NS(=O)(=O)c1ccc2[nH]cc(C(=O)NC3CCCC3)c(=O)c2c1", "Potency": "inconclusive: 11.2 µM [inhibitor, full curve, poor fit]"},
      {"smiles": "COc1cc(CN2CCC(C(=O)N3CCN(c4ccccc4F)CC3)CC2)cc(OC)c1OC", "Potency": "active: 2.51 µM"},
      {"smiles": "CC(=O)C1=C(c2ccc(Br)cc2)C(=O)c2ccccc2C1=O", "Potency": "active: 22.4 µM"},
      {"smiles": "CCCc1cc2c(=O)c(-c3nc4ccccc4s3)c(COCC(=O)O)oc2cc1O", "Potency": "inconclusive: 79.4 µM [inhibitor, partial curve]"},
      {"smiles": "COc1ccc(N(CC(=O)NCCSc2ccccn2)S(C)(=O)=O)cc1", "Potency": "inconclusive: 89.1 µM [inhibitor, single point]"},
      {"smiles": "CCOc1cc(S(=O)(=O)n2ccc(C)n2)ccc1Br", "activity change, negative = inhibition": "inactive: 6.29%"},
      {"smiles": "Cc1cc(C(=O)COC(=O)C(C)NC(N)=O)c(C)n1Cc1ccco1", "note": "(centres undefined)", "Potency": "inconclusive: 89.1 µM [inhibitor, partial curve]"},
      {"smiles": "COc1ccc(CNC(=O)COc2ccc(F)cc2)cc1", "activity change, negative = inhibition": "inactive: -6.34%"},
      {"smiles": "CCCCOc1ccc(CNC(=O)CN2CCSc3ccccc32)cc1", "Potency": "inconclusive: 50.1 µM [inhibitor, partial curve]"},
      {"smiles": "Cn1cccc1CC(=O)N/N=C/c1cccc([N+](=O)[O-])c1", "Potency": "inconclusive: 56.2 µM [inhibitor, partial curve]"},
      {"smiles": "CCN(CC)S(=O)(=O)c1ccc2c(c1)nc(SCc1nc3ccsc3c(=O)[nH]1)n2CC", "activity change, negative = inhibition": "inactive: -13.2%"},
      {"smiles": "CCOC(=O)C1CCN(c2cc3c(cc2NC(=O)c2ccccc2OCC)n(C)c(=O)n3C)CC1", "Potency": "inconclusive: 79.4 µM [inhibitor, partial curve]"},
      {"smiles": "CCn1c(SCC(=O)c2cc(C)n(-c3ccc(C(=O)OC)cc3)c2C)nnc1-c1cccnc1", "Potency": "inconclusive: 79.4 µM [inhibitor, partial curve]"},
      {"smiles": "Oc1cccc(/C=N/Nc2cc(N3CCOCC3)nc(N3CCOCC3)n2)c1", "Potency": "inconclusive: 44.7 µM [inhibitor, single point]"},
      {"smiles": "CC1CC(c2ccccc2)n2nc(NC(=O)CCc3ccccc3)nc2N1", "note": "(centres undefined)", "Potency": "active: 79.4 µM"}
    ]}
  ]
}
